# Results as given in PubChem BioAssay AID463173 (ICCB-Longwood Screening Facility, Harvard Medical School, 2010).
# Screen size: about 52,000 compounds; about 4,300 (8.3%) were called active. No stated cut-off is given here; in the data, active means survival mostly below about 52% (no sharp cut-off); inactive means mostly above about 56%. This is one part of the list.
# Test system: DeltatarO mutant
# Assay: growth inhibition of S. aureus wild type versus tarO mutant, primary screen, teichoic acid synthesis inhibitors, RN4220, OD600 (AID 463173)
# Settings: OD600, 18 h, active compounds read low, screened at 18.75 µg/mL (by protocol)
row,Structure (SMILES),survival
1,COc1ccc(-c2cn3c(C)c(C(=O)Nc4cc(C)cc(C)c4)sc3n2)cc1,inactive: 77%
2,Cc1cc(-c2ccc(C)c(S(=O)(=O)N3CCOc4ccc(Cl)cc43)c2)on1,inactive: 79%
3,CCc1ccccc1-n1c(N)c(C(=O)OC)c2nc3ccccc3nc21,inactive: 74%
4,CCc1cccc(NC(=O)CN(C)S(=O)(=O)c2ccc3[nH]c4c(c3c2)CCCC4)c1,inactive: 101%
5,COC(=O)c1sc2cccc(F)c2c1S(=O)(=O)N1CCN(c2cccc(C)c2)C(C)C1 (stereo not drawn),inactive: 94%
6,COc1ccc(CCNc2ncnc3c2nnn3C)cc1,inactive: 89%
7,Cc1nc2ccc(S(=O)(=O)N(CC(=O)Nc3ccc(F)cc3)Cc3ccccc3)cc2s1,inactive: 89%
8,CC1CCc2c(sc(NC(=O)CCCOc3ccccc3)c2C(N)=O)C1 (stereo not drawn),inactive: 78%
9,CCOc1cc(C(=O)Nc2ccc3c(c2)n(C)c(=O)c(=O)n3C)cc(OCC)c1OCC,inactive: 84%
10,CCOc1ccc(-n2c(SCC(=O)Nc3ccc(CC)cc3)nc3c(oc4ccccc43)c2=O)cc1,inactive: 71%
11,CCn1c(COc2ccccc2)nnc1SCC(=O)CC(=O)Nc1ccccc1OC,inactive: 71%
12,O=C(Nc1ccc(OC(F)(F)F)cc1)c1noc2c1CCCC2,inactive: 65%
13,CCOC(=O)CCc1c(C)nc2cc(-c3cc(OC)cc(OC)c3)[nH]n2c1=O,inactive: 90%
14,COc1cc(NC(=O)c2cc(-c3cccc(OC)c3)n[nH]2)cc(OC)c1,inactive: 80%
15,COC(=O)c1ccc(NC(=O)CC2C(=O)N(c3cccc(OC)c3)C(=O)N2C(C)C)cc1 (stereo not drawn),inactive: 88%
16,COc1cc(NC(=O)c2nnn(CC(=O)Nc3cc(C)ccc3C)c2N)cc(OC)c1,inactive: 94%
17,C/C(=N\O)C(=O)C(CN1CCCCC1)CN1CCCCC1,inactive: 88%
18,Cc1cccc(N2CCN(C(=O)c3cnc(N4CCCC4)nc3C)CC2)c1C,inactive: 90%
19,COc1ccc(C2c3c(n(C)c4ccccc34)C(=O)N2CC(=O)Nc2cccc(Cl)c2C)cc1 (stereo not drawn),inactive: 87%
20,CC1CCCN(C(=O)Cn2ncc3c([nH]c4ccccc43)c2=O)C1 (stereo not drawn),inactive: 92%
21,CCCCOc1ccc(C(=O)NCc2nnnn2-c2ccc(C)c(C)c2)cc1,inactive: 98%
22,CCOC(=O)c1c(C)oc2ncnc(Nc3cc(C)cc(C)c3)c12,inactive: 94%

row,Structure (SMILES),survival
1,O=C(NCCCN1CCN(c2cccc(Cl)c2)CC1)c1cnn(-c2ccc(F)cc2)c1-n1cccc1,active: 32%
2,O=C(NCCc1csc2nc(-c3ccccc3F)nn12)C(=O)Nc1cc(F)ccc1F,inactive: 79%
3,CCN1C(=O)c2ccccc2Sc2ccc(NC(=O)Nc3cccc([N+](=O)[O-])c3C)cc21,inactive: 86%
4,CCC1=C(c2ccc(C)cc2)S(=O)(=O)N=C1N1CCC(C(=O)NCc2ccc(N(C)C)cc2)CC1,inactive: 86%
5,COc1ccc(N(C(=O)c2ccc(C(C)(C)C)cc2)S(=O)(=O)c2ccc(Cl)cc2)cc1,inactive: 81%
6,COc1ccc(CNC(=O)c2cnn3c(C)c(Cc4c(F)cccc4Cl)c(C)nc23)cc1,inactive: 75%
7,Cc1ccc(N2CC(NC(=O)c3cccc(Cl)c3)CC2=O)cc1C (stereo not drawn),inactive: 75%
8,COc1ccc(C(=O)c2c(N)c(C(=O)Nc3cccc(OC)c3)c3ccccn23)cc1,inactive: 79%
9,Cc1c(C(=O)N(C)C)sc2c1c(=O)n(-c1ccc(Cl)cc1)c(=O)n2CC(=O)C(C)(C)C,inactive: 102%
10,COc1ccc(-n2c(=O)c3sc4ccccc4c3n(Cc3ccccc3C)c2=O)cc1OC,inactive: 97%
11,Cc1ccc(NC(=O)Cn2nc(N3CCN(c4ccccc4)CC3)ccc2=O)cc1F,inactive: 83%
12,COc1ccc(S(=O)(=O)N2Cc3ccccc3CC2C(=O)Nc2ccc(C)cc2C)cc1OC (stereo not drawn),inactive: 68%
13,CCOC(=O)c1c(C)[nH]c(C)c1S(=O)(=O)N1CCC(C(=O)NCc2cccc(OC)c2)CC1,inactive: 67%
14,CCC1CCCCN1S(=O)(=O)c1cc2c3c(c1)CC(=O)N3CCC2 (stereo not drawn),inactive: 101%
15,CCC(C(=O)O)n1ccc2cc(S(=O)(=O)N3CCCCC3)ccc21 (stereo not drawn),inactive: 82%
16,CCc1ccccc1NC(=O)Cn1c(=O)ccc2cc(S(=O)(=O)N3CCCC3)ccc21,active: 46%
17,CCCSc1ncc(Cl)c(C(=O)N(Cc2ccc(Cl)cc2)Cc2ccco2)n1,active: 39%
18,CCOC(=O)N1CCc2c(sc3c2c(=O)n(-c2ccc(CC)cc2)c(=O)n3C)C1,inactive: 105%
19,COc1ccc(OCc2ccc(-c3nc(C#N)c(N4CCCCC4)o3)o2)cc1,active: 42%
20,Cc1ccccc1OCC(=O)N1CCC(c2nc3ccccc3s2)CC1,inactive: 51%
21,O=C(NCc1ccccc1)c1ccc2c(c1)CCN2S(=O)(=O)c1ccc(Cl)cc1,inactive: 73%
22,COc1ccc2cc3c(N)nn(C(=O)c4ccccc4Cl)c3nc2c1,inactive: 87%

row,Structure (SMILES),survival
1,COc1ccc(-c2noc(CN(C(=O)C(C)Oc3ccc(C)cc3)C(C)C)n2)cc1 (stereo not drawn),inactive: 63%
2,CCn1cc(C(=O)NCCc2ccc(OC)c(OC)c2)c(=O)c2cc(S(=O)(=O)N(C)C3CCCCC3)ccc21,inactive: 54%
3,O=C(NCc1cccnc1)c1cn(C2CC2)c2cc(N3CCN(C(=O)c4cccc(Cl)c4)CC3)c(F)cc2c1=O,active: 1%
4,CCOc1ccc(NC(=O)N2CCN(c3ccc(Cl)c(Cl)c3)CC2)cc1,inactive: 107%
5,Cc1ccc(C)c(NC(=O)Cn2cc(S(=O)(=O)Cc3cccc(Cl)c3)c3ccccc32)c1,inactive: 99%
6,CCOc1ccc(-c2ncccc2O)cc1,inactive: 105%
7,CCc1ccc(NC(=O)CN2C(=O)CSc3ccc(S(=O)(=O)N(C)C)cc32)cc1,inactive: 80%
8,Cc1ccc(N2CCN(C(=O)c3cc4cc5ccc(C)cc5nc4s3)CC2C)cc1 (stereo not drawn),inactive: 76%
9,Fc1ccc(-n2ncc3c(Nc4ccc5c(c4)OCCO5)ncnc32)cc1,inactive: 97%
10,Cc1ccc(Nc2sc(C(=O)c3ccccc3)c(N)c2S(=O)(=O)c2ccccc2)cc1Cl,inactive: 88%
11,CCc1ccc(CNC(=O)Cn2nc(-c3ccc(C)cc3)ccc2=O)cc1,inactive: 106%
12,Cc1nc2ccccn2c1C(=O)OCC#N,inactive: 102%
13,Cc1cc(S(=O)(=O)N(C)CCc2ccccc2)ccc1-n1cnnn1,inactive: 61%
14,COc1ccccc1N1CCN(C(=O)CCS(=O)(=O)c2ccc3c(c2)oc(=O)n3C)CC1,inactive: 83%
15,FC(F)(F)c1cccc(C(c2nnnn2Cc2ccccc2)N(Cc2ccco2)CC2CCCO2)c1 (stereo not drawn),inactive: 105%
16,CC(C)Oc1ccc(C(=O)N(Cc2ccc(N(C)C)cc2)C2CCS(=O)(=O)C2)cc1 (stereo not drawn),inactive: 54%
17,N#Cc1cc2c(nc1SCC(=O)N1CCOCC1)CCC2,inactive: 97%
18,CCOc1cccc(CNC(=O)c2ccc(N3CCCC3)c(NC(=O)NCc3ccccc3)c2)c1,inactive: 78%
19,Cc1ccccc1CNC(=O)CCS(=O)(=O)c1cc2c3c(c1)CCN3C(=O)CC2,inactive: 113%
20,COc1ccc(Cl)cc1NC(=O)Cn1ccn(-c2cc(C)cc(C)c2)c(=O)c1=O,inactive: 71%
21,CCOC(=O)C1CCN(C2CC(=O)N(c3ccc(NC(C)=O)cc3)C2=O)CC1 (stereo not drawn),inactive: 70%
22,CSc1nnc(C2CCCN(CC(=O)NC3CCCCC3C)C2)n1C (stereo not drawn),inactive: 75%

row,Structure (SMILES),survival
1,O=C(CN1C(=O)CC(c2ccccc2)=Nc2ccccc21)Nc1ccc(Br)cc1,inactive: 124%
2,CNC(=O)c1ccc2c(c1)N(Cc1cc(C)ccc1C)C(=O)c1ccccc1S2,inactive: 85%
3,COc1ccc(-c2noc(CSc3nnc(C)n3-c3cccc(C)c3)n2)cc1,inactive: 58%
4,COc1cc(C(=O)NCCc2csc(-c3ccc(Cl)cc3)n2)cc(OC)c1OC,inactive: 94%
5,COc1ccc(O)c(C2=Nc3ccccc3N=C(c3ccccc3)C2)c1,inactive: 123%
6,CCOC(=O)N1CCN(C(=O)c2cnn3c(C(F)(F)F)cc(-c4cccc(OC)c4)nc23)CC1,inactive: 68%
7,CCOC(=O)c1nc(Nc2ccc(C(=O)OC(C)C)cc2)c2ccccc2n1,inactive: 68%
8,Cc1cc(C=C(C#N)C#N)c(C)n1-c1ccccc1,inactive: 98%
9,CCOC(=O)C1=C(C)N(C2CCCCC2)C(=O)C1,inactive: 98%
10,COc1ccc(C2c3c(n(C)c4ccccc34)C(=O)N2CC(=O)Nc2cccc(Cl)c2)cc1 (stereo not drawn),inactive: 80%
11,CCOC(=O)c1c(NC(=O)CSc2cn(CCNC(=O)c3ccc(OC)cc3)c3ccccc23)sc2c1CCCC2,inactive: 76%
12,COc1ccc(CNC(=O)c2ccc(-c3nc(CSc4ccc(C)cc4)c(C)o3)cc2)c(OC)c1,active: 6%
13,CCCN1CCN(C(=O)Cn2c(-c3cccs3)cc3cc(F)ccc32)CC1,inactive: 95%
14,Cc1ccc2c(c1)N(C(=O)Nc1cccc3c1CCCC3)CCO2,inactive: 86%
15,O=C(NCCc1ccccc1)c1ccc(Nc2nc3ccccc3n3nnnc23)cc1,inactive: 79%
16,CN(Cc1ccccc1)c1ccc(-c2nc(-c3ccncc3)no2)cc1[N+](=O)[O-],inactive: 63%
17,Cc1cc(C)cc(C(=O)NCC(c2ccc(N(C)C)cc2)N2CCCC2)c1 (stereo not drawn),inactive: 95%
18,COc1cccc(NC(=O)C2CCCN(S(=O)(=O)c3cccc4nonc34)C2)c1 (stereo not drawn),inactive: 90%
19,Cc1cn2c(=O)c(S(=O)(=O)Nc3ccc(F)cc3F)c(C)nc2s1,inactive: 94%
20,O=C(NCCC1=CCCCC1)C1CCN(C(=O)N2CCOc3ccc(Cl)cc32)CC1,active: 47%
21,CCOC(=O)CC(NC(=O)CCc1c(C)nc2ncnn2c1C)c1ccc(C)cc1 (stereo not drawn),inactive: 88%
22,CCOc1ccc(C(=O)NCCc2csc(-c3cccc(F)c3)n2)cc1OCC,inactive: 115%
